# Values joined by “and” are separate entries in the source; they are usually repeats but may differ in a detail not shown here. Identical values can stand only once. The whole screen tested about 140,000 compounds, of which about 240 (0.17%) were called active. The inconclusive results got no clear call from the source; some entries with a clear call stand among them for comparison. The call rests on the fitted dose curve; in most records, active means well fitted inhibition curve with a large enough effect; inconclusive means small, poorly fitted or top-dose-only effect; inactive means no such curve, though single readings can be large or run the other way. A potency beside an inconclusive call is a rough fit, not a confirmed value.
# Assay: Primary qHTS assay for inhibitors of alpha-synuclein gene (SNCA) expression; further: nearly all actives have a fitted effect of over 45% in size;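 on activity change, negative = inhibition: plate controls were DMSO cells for no effect and cell-free wells for full effect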
# Conditions: HEK-293 SNCA-luciferase knock-in, luminescence, 24 h; activity change, negative = inhibition: at 57.2 µM (top of the series) unless noted
# Potency means the concentration at half of the fitted maximal effect; tags describe the fitted curve by direction and shape.
SMILES,Potency,"activity change, negative = inhibition"
CCOC(=O)c1c(C)[nH]c(C)c1S(=O)(=O)N1CCC(C(=O)N2CCN(c3cc(C)ccc3C)CC2)CC1,"inconclusive: 25.1 µM [inhibitor, single point]",
COCc1nc(-c2ccc(OC3CCN(C(=O)CCc4ccc(OC)cc4)C3)cc2)no1 (configuration not stated),,inactive: -26.7%
Cc1cccc(NC(=O)C2CCN(C(=O)c3nnn4cc(C)[nH]c(=O)c34)CC2)c1,"inconclusive: 39.8 µM [inhibitor, single point]",
CSc1ccc(NC(=O)c2ccc3c(c2)N(C)C2CCCN2C3=O)cc1 (configuration not stated),,inactive: 231%
Oc1ccc(-c2nc(C3CC3)nc3c2CCN(Cc2ccsc2)CC3)cc1,,inactive: 6.73%
O=C(Nc1cccc(F)c1)N1Cc2[nH]cnc2C[C@H]1c1nc(-c2ccc3c(c2)OCO3)no1,"inconclusive: 7.08 µM [inhibitor, partial curve, poor fit]",
CCOC(=O)N1CCN(C(=O)c2ccc3c(c2)N(Cc2cc(C)ccc2C)C(=O)c2ccccc2S3=O)CC1 (configuration not stated),"inconclusive: 17.8 µM [inhibitor, partial curve, poor fit]",
COc1ccc(-c2cc(N3CCCN(C(=O)c4cc5ccccc5[nH]4)CC3)n[nH]2)cc1,,inactive: 60%
CCn1cnnc1-c1nn(C)c2c1CN(C(=O)c1noc(C)c1COc1cccc(C)c1)CC2,"inconclusive: 2.51 µM [inhibitor, full curve]",
CC(C)C[C@@H]1N[C@H](C(=O)NC2CCCC2)Cc2cn(CC3CC3)c3cccc1c23,"inconclusive: 20 µM [inhibitor, single point]",
O=C(Nc1nc2ccccc2s1)c1ccc2c(c1)OCCN(CCC(F)(F)F)C2,,inactive: 60% [at 87.6 µM]
COCC(=O)NC[C@@H]1C=C(C)[C@H](Cc2nc3ccc(C(=O)OC)cc3[nH]2)C[C@H]1C(C)C,,inactive: 85.4% [at 87.6 µM]
Cc1ccc([S+](=O)([O-])N2CCC(N3CCCNC3=O)CC2)cc1,inactive,
Cc1cc(C)cc(-c2ccc(CN)cc2)c1,"inconclusive: 56.2 µM [inhibitor, single point]",
Cc1ccc(-n2c3nc(=O)[nH]c(=O)c-3cc3c(Cl)cccc32)cc1,"inconclusive: 1.58 µM [inhibitor, partial curve, poor fit]",
CC(=O)N1CCC[C@H]1C(=O)N1CCc2nc(C)nc(NC3CC3)c2CC1,"inconclusive: 11.2 µM [inhibitor, partial curve, poor fit]",
COc1ccc(CCNc2ncnc3c2CN(c2ccccc2C)C(=O)CN3C)cc1,"inconclusive: 39.8 µM [inhibitor, single point]",
Cc1ccc(C(=O)N2CCCn3cc(-c4cccc(C#N)c4)nc32)cn1,,inactive: 31.1%
Cc1cccc(-c2nnc3n(CCc4ccccc4)c(=O)c4ccccc4n23)c1,"inconclusive: 25.1 µM [inhibitor, single point]",
C=CCn1cc2c3c(cccc31)[C@H](CC(C)C)N[C@H](C(=O)NCc1ccccc1)C2,,inactive: 0.869% [at 87.6 µM]
CCc1ccc(C2CC(C(=O)NCc3ccco3)CN(C(C)=O)C2)cc1 (configuration not stated),"inconclusive: 22.4 µM [inhibitor, partial curve, poor fit]",

SMILES,Potency,"activity change, negative = inhibition"
COc1ccc(NC(=O)Nc2cccc(-c3ccc(N4CCOCC4)nn3)c2)cc1F,active: 20 µM,
COCc1cn(C[C@H]2C[C@@H](NC(=O)C3CCOCC3)[C@H](O)[C@@H]2O)nn1,"inconclusive: 56.2 µM [inhibitor, single point]",
CCc1ccc(CN2C(=O)C3(CCOCC3)CC2c2nnnn2CCOC)cc1 (configuration not stated),"inconclusive: 12.6 µM [inhibitor, partial curve]",
C=CCNC(=O)c1cccc2c(C)nnn12,,inactive: 125% [at 87.6 µM]
O=C(Nc1ccccc1F)C1CCCN(Cc2cccc(-c3ccc(F)cc3F)c2)C1 (configuration not stated),,inactive: -17.1%
C=CCOc1cccc(C(=O)N2CC[C@@](O)(C3CCOCC3)[C@H](C)C2)c1,"inconclusive: 1.12 µM [inhibitor, full curve, poor fit]",
Cc1cc(C)c(NS(=O)(=O)c2ccc(-c3cnc(C4CC4)o3)cc2)c(C)c1,"inconclusive: 17.8 µM [inhibitor, partial curve, poor fit]",
Cc1cccc(-c2cccc(CN3CCC(NC(=O)C4CCCC4)CC3)c2)c1,"inconclusive: 3.16 µM [inhibitor, full curve, poor fit]",
Cn1cccc1C(=O)N1CC(c2nc(CCOCC3CCCC3)no2)C1,,inactive: 16.1%
COc1ccc(C)cc1NC(=O)CCc1c(C)nn(-c2ccc(N3CCOCC3)nn2)c1C,"inconclusive: 39.8 µM [inhibitor, single point]",
COC(=O)[C@@H]1Cc2ncn(C(C)C)c2CN1S(C)(=O)=O,,inactive: 3.19% [at 87.6 µM]
Cc1ccc2[nH]c(=O)c(CCC(=O)NC3CCN(Cc4ccccc4)CC3)cc2c1,,inactive: 4.94%
O=C(c1ccc(F)cc1)N1CCC2(C1)C(=O)N(CCc1ccccc1)c1ccccc12 (configuration not stated),"inconclusive: 7.08 µM [inhibitor, partial curve, poor fit] and inconclusive: 14.1 µM [inhibitor, partial curve, poor fit]",
CC1(C)[C@H](Cc2cc(CN3CCCCC3)on2)C[C@@H]1NC(=O)c1ccccc1,"inconclusive: 56.2 µM [inhibitor, single point]",
CC(=O)N1CCNc2cc(Nc3cccc(N(C)C)c3)ncc2C1,,inactive: 17.9% [at 87.6 µM]
CNC(=O)c1nn(C)c2c1C(C)(C)Cc1cnc(Nc3ccc(N4CCN(C)CC4)cc3)nc1-2,"inconclusive: 2.41 µM [inhibitor, full curve]",
O=C(NCc1cccnc1)c1nc(-c2ccc(Cl)cc2Cl)c2cnccn12,,inactive: -10.5%
COc1ccccc1-c1cccc(CN2CCCC(C(=O)NC3CC3)C2)c1 (configuration not stated),,inactive: -16.4%
CCc1noc(-c2ccn3c(CNC(=O)c4ccc(OC)cc4)nnc3c2)n1,"inconclusive: 39.8 µM [inhibitor, single point]",
O=C(NCc1cnccn1)c1ccc(-c2ncc3cnc(-c4cccc(F)c4)cn23)cc1,"inconclusive: 12.6 µM [inhibitor, single point]",
O=C(O)CCCNc1cc(N2CCN(C3CCCCC3)CC2)c2noc3c2c1C(=O)c1ccccc1-3,"inconclusive: 25.1 µM [inhibitor, partial curve, poor fit]",

# Source: PubChem BioAssay AID1671194 (National Center for Advancing Translational Sciences (NCATS), 2021)
